Assay results: the supplement of paper PMC8728848
The list shows a part of the results.

What was measured:
Assay in all cases: glycan array binding signal (z-score within array); higher = stronger binding
Conditions in all cases: glycan notation: IUPAC condensed, linker removed
[1] = biological target: Neu5Ac(a2-6)Gal(b1-4)GlcNAc(b1-2)Man(a1-3)[GlcNAc(b1-4)][Neu5Ac(a2-6)Gal(b1-4)GlcNAc(b1-2)Man(a1-6)]Man(b1-4)GlcNAc(b1-4)GlcNAc
In short: (§1)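 Negative Z-scores can be read as non-binding. The Z-score is calculated within each array and then averaged across arrays of one protein sequence at different concentrations or buffers and across linkers. Arrays, 3228 in all, were curated from the Consortium for Functional Glycomics database and kept only where the protein sequence was available.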

[2] = biological target: Neu5Ac(a2-6)Gal(b1-4)GlcNAc(b1-2)Man(a1-3)[Man(a1-6)]Man(b1-4)GlcNAc(b1-4)GlcNAc
In short: as §1

[3] = biological target: Neu5Ac(a2-6)Gal(b1-4)GlcNAc(b1-2)Man(a1-3)[Neu5Ac(a2-3)Gal(b1-4)GlcNAc(b1-2)Man(a1-6)]Man(b1-4)GlcNAc(b1-4)GlcNAc
In short: as §1

[4] = biological target: Neu5Ac(a2-6)Gal(b1-4)GlcNAc(b1-2)Man(a1-3)[Neu5Ac(a2-6)Gal(b1-4)GlcNAc(b1-2)Man(a1-6)]Man(b1-4)GlcNAc(b1-4)GlcNAc
In short: as §1

[5] = biological target: Neu5Ac(a2-6)Gal(b1-4)GlcNAc(b1-2)Man(a1-3)[Neu5Ac(a2-6)Gal(b1-4)GlcNAc(b1-2)Man(a1-6)]Man(b1-4)GlcNAc(b1-4)[Fuc(a1-6)]GlcNAc
In short: as §1

[6] = biological target: Neu5Ac(a2-6)Gal(b1-4)GlcNAc(b1-2)Man(a1-6)Man(b1-4)GlcNAc(b1-4)GlcNAc
In short: as §1

[7] = biological target: Neu5Ac(a2-6)Gal(b1-4)GlcNAc(b1-2)Man(a1-6)[Gal(b1-4)GlcNAc(b1-2)Man(a1-3)]Man(b1-4)GlcNAc(b1-4)GlcNAc
In short: as §1

[8] = biological target: Neu5Ac(a2-6)Gal(b1-4)GlcNAc(b1-2)Man(a1-6)[GlcNAc(b1-2)Man(a1-3)]Man(b1-4)GlcNAc(b1-4)GlcNAc
In short: as §1

[9] = biological target: Neu5Ac(a2-6)Gal(b1-4)GlcNAc(b1-2)Man(a1-6)[Man(a1-3)]Man(b1-4)GlcNAc(b1-4)GlcNAc
In short: as §1

[10] = biological target: Neu5Ac(a2-6)Gal(b1-4)GlcNAc(b1-2)[Neu5Ac(a2-6)Gal(b1-4)GlcNAc(b1-4)]Man(a1-3)[GlcNAc(b1-4)][Neu5Ac(a2-6)Gal(b1-4)GlcNAc(b1-2)[Neu5Ac(a2-6)Gal(b1-4)GlcNAc(b1-6)]Man(a1-6)]Man(b1-4)GlcNAc(b1-4)GlcNAc
In short: as §1

[11] = biological target: Neu5Ac(a2-6)Gal(b1-4)GlcNAc(b1-2)[Neu5Ac(a2-6)Gal(b1-4)GlcNAc(b1-4)]Man(a1-3)[GlcNAc(b1-4)][Neu5Ac(a2-6)Gal(b1-4)GlcNAc(b1-4)Man(a1-6)]Man(b1-4)GlcNAc(b1-4)GlcNAc
In short: as §1

[12] = biological target: Neu5Ac(a2-6)Gal(b1-4)GlcNAc(b1-2)[Neu5Ac(a2-6)Gal(b1-4)GlcNAc(b1-6)]Man(a1-6)[Neu5Ac(a2-6)Gal(b1-4)GlcNAc(b1-2)Man(a1-3)][GlcNAc(b1-4)]Man(b1-4)GlcNAc(b1-4)GlcNAc
In short: as §1

[13] = biological target: Neu5Ac(a2-6)Gal(b1-4)GlcNAc(b1-3)Gal(b1-3)GlcNAc
In short: as §1

[14] = biological target: Neu5Ac(a2-6)Gal(b1-4)GlcNAc(b1-3)Gal(b1-4)GlcNAc
In short: as §1

[15] = biological target: Neu5Ac(a2-6)Gal(b1-4)GlcNAc(b1-3)Gal(b1-4)GlcNAc(b1-2)Man(a1-3)[Neu5Ac(a2-6)Gal(b1-4)GlcNAc(b1-3)Gal(b1-4)GlcNAc(b1-2)Man(a1-6)]GalNAc
In short: as §1

[16] = biological target: Neu5Ac(a2-6)Gal(b1-4)GlcNAc(b1-3)Gal(b1-4)GlcNAc(b1-3)Gal(b1-4)GlcNAc
In short: as §1

[17] = biological target: Neu5Ac(a2-6)Gal(b1-4)GlcNAc(b1-3)Gal(b1-4)GlcNAc(b1-3)Gal(b1-4)GlcNAc(b1-2)Man(a1-3)[Neu5Ac(a2-6)Gal(b1-4)GlcNAc(b1-3)Gal(b1-4)GlcNAc(b1-3)Gal(b1-4)GlcNAc(b1-2)Man(a1-6)]GalNAc
In short: as §1

[18] = biological target: Neu5Ac(a2-6)Gal(b1-4)GlcNAc(b1-3)Gal(b1-4)GlcNAc(b1-3)GalNAc
In short: as §1

[19] = biological target: Neu5Ac(a2-6)Gal(b1-4)GlcNAc(b1-3)Gal(b1-4)GlcNAc(b1-3)[Neu5Ac(a2-6)Gal(b1-4)GlcNAc(b1-3)Gal(b1-4)GlcNAc(b1-6)]GalNAc
In short: as §1

[20] = biological target: Neu5Ac(a2-6)Gal(b1-4)GlcNAc(b1-3)Gal(b1-4)GlcNAc(b1-6)[Gal(b1-3)]GalNAc
In short: as §1

[21] = biological target: Neu5Ac(a2-6)Gal(b1-4)GlcNAc(b1-3)Gal(b1-4)[Fuc(a1-3)]GlcNAc(b1-3)Gal(b1-4)[Fuc(a1-3)]GlcNAc
In short: as §1

[22] = biological target: Neu5Ac(a2-6)Gal(b1-4)GlcNAc(b1-3)GalNAc
In short: as §1

[23] = biological target: Neu5Ac(a2-6)Gal(b1-4)GlcNAc(b1-3)[Neu5Ac(a2-6)Gal(b1-4)GlcNAc(b1-6)]GalNAc
In short: as §1

[24] = biological target: Neu5Ac(a2-6)Gal(b1-4)GlcNAc(b1-6)GalNAc
In short: as §1

[25] = biological target: Neu5Ac(a2-6)Gal(b1-4)GlcNAc(b1-6)[Gal(b1-3)GlcNAc(b1-3)]Gal(b1-4)Glc
In short: as §1

[26] = biological target: Neu5Ac(a2-6)Gal(b1-4)GlcNAc(b1-6)[Gal(b1-3)]GalNAc
In short: as §1

[27] = biological target: Neu5Ac(a2-6)Gal(b1-4)GlcNAc6S
In short: as §1

Neu5Ac(a2-6)GalNAc = biological target: Neu5Ac(a2-6)GalNAc
In short: as §1

[28] = biological target: Neu5Ac(a2-6)GalNAc(b1-4)GlcNAc
In short: as §1

[29] = biological target: Neu5Ac(a2-6)GalNAc(b1-4)GlcNAc6S
In short: as §1

[30] = biological target: Neu5Ac(a2-6)GlcNAc(b1-4)GlcNAc
In short: as §1

B1: BTL (Bryothamnion triquetrum) (protein)
chain: ADPICGSSGYSCTTPAILTPKSPGSFPSGYSKVIVTGVGGSYSVYIHRPDGFKVYKASEGGCASFGSYSGGGNSEVGKYGSGGTVVAVACK
glycan array binding signal (z-score) [1]: -0.263 | glycan array binding signal (z-score) [2]: -0.22 | glycan array binding signal (z-score) [3]: -0.249 | glycan array binding signal (z-score) [4]: -0.19 | glycan array binding signal (z-score) [5]: 8.12 | glycan array binding signal (z-score) [6]: -0.204 | glycan array binding signal (z-score) [7]: -0.245 | glycan array binding signal (z-score) [8]: -0.287 | glycan array binding signal (z-score) [9]: -0.268 | glycan array binding signal (z-score) [10]: -0.202 | glycan array binding signal (z-score) [11]: -0.25 | glycan array binding signal (z-score) [12]: -0.217 | glycan array binding signal (z-score) [13]: -0.257 | glycan array binding signal (z-score) [14]: -0.277 | glycan array binding signal (z-score) [15]: -0.208 | glycan array binding signal (z-score) [16]: -0.265 | glycan array binding signal (z-score) [17]: -0.016 | glycan array binding signal (z-score) [18]: -0.108 | glycan array binding signal (z-score) [19]: -0.183 | glycan array binding signal (z-score) [20]: -0.161 | glycan array binding signal (z-score) [21]: -0.234 | glycan array binding signal (z-score) [22]: -0.18 | glycan array binding signal (z-score) [23]: -0.22 | glycan array binding signal (z-score) [24]: -0.107 | glycan array binding signal (z-score) [25]: -0.204 | glycan array binding signal (z-score) [26]: -0.175 | glycan array binding signal (z-score) [27]: -0.242 | glycan array binding signal (z-score) (Neu5Ac(a2-6)GalNAc): -0.3 | glycan array binding signal (z-score) [28]: -0.28 | glycan array binding signal (z-score) [29]: -0.292 | glycan array binding signal (z-score) [30]: -0.257
